In the supplement of paper PMC12217912:
The list shows a part of the results. Sequences were assembled here from the parent chain. Inactive controls read about 0.05.

B1: TEV protease; numbered along this chain (parent)
chain: MGESLFKGPRDYNPISSSICHLTNESDGHTTSLYGIGFGPFIITNKHLFRRNNGTLVVQSLHGVFKVKDTTTLQQHLVDGRDMIIIRMPKDFPPFPQKLKFREPQREERICLVTTNFQTKSMSSMVSDTSCTFPSGDGIFWKHWIQTKDGQCGSPLVSTRDGFIVGIHSASNFTNTNNYFTSVPKNFMELLTNQEAQQWVSGWRLNADSVLWGGHKVFMVKPEEPFQPVKEATQL

Variants of: B1
Assay: raw area under fraction-flipped curve 0-4 h after induction (AUC4h, not background-subtracted), DNA-recorder readout of cleavage of the substrate (dimensionless); higher = more cleavage of the substrate by the protease variant
Conditions: temperature: 34 °C; time window: 0-4 h after rhamnose induction
Protocol: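 In vivo DNA recorder in E. coli TOP10(DE3) ΔrhaA at 34 °C. Each TEVp single-site mutant (parent TEVp 0) is paired with a single-site variant of the 7-mer TEVs (canonical ENLYFQ|S). The substrate sits between flexible linkers in a Bxb1-sfGFP-TEVs-SsrA fusion, so cleavage stabilises Bxb1 and speeds flipping of a recombination array, read by NGS. The value is the raw area under the fraction-flipped curve over 0-4 h after rhamnose induction (AUC4h), with ≥20 reads per time point. It is not background-subtracted; inactive controls average about 0.047.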
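Also: Bxb1 expression induced with 0.2% (w/v) L-rhamnose at OD600 near 0.5, cultures sampled hourly, flipped fraction per protease–substrate barcode pair counted by paired-end Illumina sequencing.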

Variant | area with substrate ENLYFQA | area with substrate ENLYFQD | area with substrate ENLYFQG | area with substrate ENLYFQH | area with substrate ENLYFQI | area with substrate ENLYFQK | area with substrate ENLYFQL | area with substrate ENLYFQN | area with substrate ENLYFQS | area with substrate ENLYFQT | area with substrate ENLYFQV | area with substrate ENLYFQW | area with substrate ENLYFQY | area with substrate ENLYFQC | area with substrate ENLYFQE | area with substrate ENLYFQF | area with substrate ENLYFQM | area with substrate ENLYFQP | area with substrate ENLYFQR | area with substrate ENLYFQQ
D137W | 0.0779 | 0.0687 | 0.0796 | 0.0653 | 0.0705 | 0.0441 | 0.0495 | 0.0589 | 0.0957 | 0.0787 | 0.0504 | 0.0524 | 0.056 |  |  |  |  |  |  | 
T119N | 0.13 |  | 0.117 | 0.0909 | 0.0524 | 0.0559 | 0.0674 | 0.11 | 0.117 | 0.0705 | 0.0594 | 0.0602 | 0.0956 | 0.169 |  |  |  |  |  | 
F92M | 0.0993 |  | 0.125 |  | 0.0483 |  | 0.0724 |  | 0.12 | 0.0553 |  |  |  |  | 0.0488 | 0.0829 | 0.0893 |  |  | 
F117Y | 0.0681 | 0.0722 |  |  |  | 0.0549 |  | 0.0847 | 0.107 |  |  |  |  |  | 0.0683 | 0.0885 | 0.0919 | 0.0822 | 0.0374 | 
F117I | 0.09 | 0.0622 |  | 0.0302 |  |  | 0.0623 | 0.0782 | 0.0956 | 0.0703 |  |  |  | 0.104 |  |  |  | 0.0698 | 0.0664 | 
E107V | 0.0936 | 0.0668 |  | 0.0749 | 0.0579 | 0.0596 |  | 0.0785 | 0.0975 | 0.0636 | 0.0598 | 0.0652 | 0.0571 |  |  |  |  | 0.063 | 0.0085 | 
E107D | 0.0897 |  | 0.0794 | 0.0832 | 0.0679 | 0.058 | 0.0531 | 0.0863 | 0.102 |  |  | 0.0856 | 0.0712 | 0.11 |  | 0.0603 | 0.0897 | 0.0687 |  | 
I84M | 0.0781 |  | 0.0833 |  |  | 0.0749 | 0.0416 | 0.0579 | 0.0856 | 0.0667 |  |  | 0.0697 | 0.101 |  |  | 0.072 |  |  | 
I110A | 0.101 |  |  |  |  |  |  |  | 0.102 | 0.0652 |  |  |  | 0.125 |  |  |  |  |  | 
P94H | 0.0803 | 0.0781 | 0.11 | 0.108 |  |  | 0.0617 |  | 0.102 | 0.0792 |  |  | 0.0906 | 0.107 | 0.0703 |  | 0.0896 |  | 0.0638 | 
P94L | 0.101 |  |  |  |  |  | 0.0531 | 0.0871 | 0.108 |  |  | 0.0678 |  | 0.124 |  | 0.105 |  |  | 0.0569 | 
W141D | 0.0422 |  |  | 0.0486 | 0.0542 | 0.0548 | 0.0598 |  | 0.0562 |  |  |  | 0.0595 |  |  |  | 0.0735 |  | 0.0524 | 
V113E | 0.0612 |  | 0.0447 |  | 0.0524 | 0.043 |  | 0.0556 | 0.0656 |  | 0.0413 |  | 0.0605 | 0.0671 |  | 0.0543 |  | 0.0587 |  | 0.0523
D82T | 0.0559 | 0.0561 | 0.0609 |  | 0.0621 |  | 0.0511 | 0.0412 | 0.0571 | 0.059 | 0.0464 | 0.0588 | 0.0799 | 0.0486 |  |  | 0.0514 | 0.0605 |  | 
F101M | 0.121 | 0.0714 | 0.0898 |  |  | 0.0608 | 0.0646 | 0.0793 | 0.0943 | 0.0515 | 0.0672 |  | 0.0717 | 0.109 |  |  |  | 0.0564 | 0.0484 | 
